Measured values taken from the supplement of paper PMC7826260.
The other results are listed elsewhere or left out. One pool of 16,384 single-stranded DNAs met each Rep nickase domain in vitro (1 h at 37 °C, 3 µM enzyme); the outer parts of the 90-letter strands are left off. Values are log2 of uncut reads against the no-enzyme pool; more negative means more cut, near 0 not cut, and no call is made. Reads are scaled to the total; where an enzyme cuts many sequences, the uncut ones exceed 0.

Each sequence was assayed on T1, Rep nickase domain of tomato golden mosaic virus (assay: uncleaved DNA left, log2 of reads against the no-enzyme library (log2 ratio); higher = less cleavage (more negative = more Rep cleavage of the k-mer); sequences stand for … in CTCGTCCG…ACCGGAGA).
T1 sequence (residues 1-124 of Rep, tag left off): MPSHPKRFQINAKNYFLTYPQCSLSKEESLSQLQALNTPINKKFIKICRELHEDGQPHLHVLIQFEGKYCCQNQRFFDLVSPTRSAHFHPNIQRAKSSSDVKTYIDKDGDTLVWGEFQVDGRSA
Procedure: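 A pool of 90-nt single-stranded DNAs with seven random bases just before the constant AC of the nick site (name = the seven bases) was cut by 3 µM recombinant His6-SUMO-tagged Rep nickase domain (300 nM DNA, 50 mM HEPES pH 8.0, 50 mM NaCl, 1 mM MnCl2, 1 h, 37 °C, three replicates). Uncut DNA was amplified and sequenced.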

Sequence | uncleaved DNA left (log2)
CCTGGGC | 0.0703
GTCCAAT | 0.206
GATGTTC | 0.0193
AACCGTT | -0.116
CGGGAGG | -0.0201
TGCTGCA | -0.0666
CTTGAGC | -0.0883
AAAACCA | 0.0125
GAACATC | 0.00373
TCAGAAA | 0.156
GAACAGC | -0.041
CGTTTCG | -0.0108
CGGCTTG | -0.0744
TGGAATT | -0.056
AGGCACT | 0.0076
AGGGGCG | 0.032
GTCTAAC | 0.0606
GCTGGAA | 0.0405
CAAACCC | -0.144
CTCCTGG | -0.125

Sequence | uncleaved DNA left (log2)
CATAGTC | -0.11
AGATCGA | -0.177
GCACATG | -0.0818
TGCTTGG | -0.112
ATTATGA | -0.1
AGACGCG | 0.074
TGCATGG | 0.0173
GCCCTTT | -0.174
CATCTCA | -0.00929
CTGGGCG | -0.196
CCAGACA | -0.073
AGCGCCT | -0.03
GACATCC | -0.144
TGACAGC | 0.0388
AGGCAGG | -0.0587
TCTTTTA | 0.0551
CGCTTGT | -0.228
TGTTCAG | -0.0379
CATCTCC | -0.112
TTCAAAT | 0.0211
